Data published in the supplement of paper PMC3334620.
In all, about 33,000 sequences were measured (“E-score (-0.5 to 0.5)”: median about -0.011, highest 2% from about 0.28 on). The list shows a part of the results.

Molecular target: T1, Gcr1 (UniProt P07261)
T1 sequence: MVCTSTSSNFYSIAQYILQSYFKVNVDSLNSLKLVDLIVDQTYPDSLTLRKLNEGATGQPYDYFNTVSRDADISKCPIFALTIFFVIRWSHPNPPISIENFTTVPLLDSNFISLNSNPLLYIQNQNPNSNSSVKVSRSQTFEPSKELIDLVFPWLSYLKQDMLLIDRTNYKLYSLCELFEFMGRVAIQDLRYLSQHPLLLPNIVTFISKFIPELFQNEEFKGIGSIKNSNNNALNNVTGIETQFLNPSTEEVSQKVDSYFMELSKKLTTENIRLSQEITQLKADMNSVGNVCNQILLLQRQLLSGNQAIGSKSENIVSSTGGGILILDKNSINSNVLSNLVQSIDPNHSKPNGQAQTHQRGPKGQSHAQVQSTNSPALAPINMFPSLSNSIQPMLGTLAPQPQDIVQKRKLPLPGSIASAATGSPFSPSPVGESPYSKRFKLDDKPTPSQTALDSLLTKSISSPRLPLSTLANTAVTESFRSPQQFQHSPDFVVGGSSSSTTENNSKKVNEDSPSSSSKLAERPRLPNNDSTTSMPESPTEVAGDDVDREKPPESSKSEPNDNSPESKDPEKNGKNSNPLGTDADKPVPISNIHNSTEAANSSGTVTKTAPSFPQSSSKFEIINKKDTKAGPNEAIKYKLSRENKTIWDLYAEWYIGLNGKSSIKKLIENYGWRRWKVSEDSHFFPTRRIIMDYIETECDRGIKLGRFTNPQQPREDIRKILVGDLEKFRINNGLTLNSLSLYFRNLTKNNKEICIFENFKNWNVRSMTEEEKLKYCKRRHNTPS
Assay: PBM E-score (8-mer binding enrichment) (E-score (-0.5 to 0.5)); higher = stronger / more preferred TF binding; most listed sequences are background and not binding sites
Conditions: protein concentration: 100 nM; construct: GST-full length
Method in brief: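 Universal all-10-mer Agilent arrays, double-stranded by primer extension on fresh or once-stripped slides, were probed with about 100-200 nM GST-tagged yeast transcription factors made by PURExpress. Fluorescent anti-GST detected bound protein, and masliner normalised the scans. E-scores from the Universal PBM Analysis Suite were given to each ungapped eight-base word pooled with its reverse complement.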

Row | Sequence | PBM E-score
1 | CCAGACCC | 0.0239
2 | CAGATTCG | 0.037
3 | AAAAACTT | 0.0377
4 | AGTTTGGC | 0.0104
5 | TCAAGACA | 0.0193
6 | CCAAGTCA | -0.049
7 | AATAAAAG | 0.24
8 | AATCATGA | -0.00347
9 | CCTGCTCC | -0.148
10 | CTCGAAAC | -0.0423
11 | CCGCCCCC | -0.248
12 | AATACAAG | 0.293
13 | CAGCTCCA | 0.0768
14 | CAAACAGG | -0.0114
15 | CAGCGGGC | 0.0112
16 | CAAATACA | 0.04
17 | GCGATAGC | -0.162
18 | TAGAGAAA | 0.0745
19 | CTAATTTC | 0.189
20 | CTGTGGGA | 0.0471
21 | CACACGGG | -0.157
22 | AAGCAAAA | -0.075
23 | GCTTCATA | -0.0609
24 | CCATAGGA | 0.023
25 | TCCAGGAA | 0.217

Row | Sequence | PBM E-score
26 | AAATTCAG | 0.169
27 | CTTTTGCA | -0.0174
28 | CACCCAAA | 0.147
29 | CTGCGTAA | 0.18
30 | ACCAATAA | 0.0976
31 | ACTGCTGC | -0.133
32 | GTCGGAGA | 0.0462
33 | CTTGACGC | -0.067
34 | TCCCCTAA | 0.206
35 | TCGCAAGA | -0.0987
36 | GTGCAAAA | -0.0996
37 | AGTCAGCG | 0.0668
38 | GAACCACC | 0.0395
39 | ATCCAGAG | 0.103
40 | AAGATAGA | -0.0016
41 | CAGGTATA | -0.0414
42 | GGCCCCAA | 0.0424
43 | CGCTAGGC | -0.216
44 | CATATCAA | 0.109
45 | TACGTACA | -0.146
46 | AAGTCAGG | 0.131
47 | ACCAGCTG | -0.0501
48 | ACTTGCGG | 0.00462
49 | AGGTACGC | -0.127
50 | CCTTATCG | -0.104

Row | Sequence | PBM E-score
51 | GCTTCGCC | 0.00109
52 | AGCCGAAT | 0.216
53 | ACGTATTC | 0.123
54 | AACGCTGG | -0.125
55 | CTCCCCAC | 0.0911
56 | ATTCGTAG | 0.152
57 | CACGCGGG | 0.113
58 | CGAGGCTC | -0.225
59 | GTAAACCA | -0.122
60 | CTAGCGGA | -0.0186
61 | AACCGAGA | -0.0782
62 | AGTAATGC | 0.0862
63 | GGTAAGAA | 0.0962
64 | ATCCTCTA | 0.18
65 | TCGACAAA | -0.0918
66 | GCTAGCCC | -0.133
67 | ATTTTCAG | 0.225
68 | CCGTGCGC | -0.199
69 | AGGAGACC | -0.111
70 | GCAGCCCC | 0.229
71 | ATGGCGCG | 0.116
72 | CGTGTGCC | -0.152
73 | ATGGCTAG | -0.182
74 | ATAGCTTA | -0.203
75 | AACGTCGG | -0.117

Row | Sequence | PBM E-score
76 | CATGATGC | 0.0288
77 | AGATGCAT | -0.0722
78 | CAACTCAG | -0.108
79 | GGATATTA | 0.0353
80 | ACCTTACG | -0.103
81 | GGCTATTA | 0.0437
82 | CTAGTACA | -0.0271
83 | AGGTGAGA | -0.123
84 | AGAGCCGA | 0.0858
85 | AGCTTTCC | -0.195
86 | ATCCGAAC | 0.124
87 | GTGGACGA | -0.0657
88 | AAACAGCG | 0.0446
89 | ACGTGATG | -0.123
90 | ACCACGAA | 0.0394
91 | CTCTGTGA | -0.136
92 | CGTACCAA | -0.0421
93 | ATAACGAT | -0.0472
94 | AGGGAATC | 0.0666
95 | CATGTAGG | 0.1
96 | ATGGATAA | -0.189
97 | TTTAAAAA | 0.12
98 | GACTATTA | 0.164
99 | AGGAAAAC | -0.0801
100 | CTCACTGC | -0.1

Row | Sequence | PBM E-score
101 | ATGGCAGC | 0.0656
102 | CAAGTATA | -0.0848
103 | CATACGGG | 0.079
104 | CACGGAGG | -0.1
105 | ACTGCGCG | -0.181
106 | AAATACTG | 0.188
107 | AGCCGTCG | -0.216
108 | AGGGAAGA | -0.198
109 | CAGTTCCC | 0.165
110 | CAGTTGGG | -0.0256
111 | ATAATCGA | 0.141
112 | ACTTCCGC | 0.0681
113 | AGAGTGGG | 0.177
114 | CGCTGGAC | 0.0666
115 | AGTTTCAC | 0.0173
116 | CACCAGTG | 0.036
117 | CCATCGAA | -0.152
118 | CAGACTAG | -0.174
119 | CTCAGGAG | -0.0598
120 | ACGGCTGC | -0.014
121 | ACCTGTGG | -0.0729
122 | CTATTGCA | -0.00827
123 | ACATGACT | -0.0743
124 | CGCAGTCA | -0.134
125 | ACCGTCGC | -0.148

Row | Sequence | PBM E-score
126 | ACGCATAC | -0.198
127 | ACCCTCGA | -0.164
128 | AAAATGAC | -0.0701
129 | ATTGAGCA | 0.0737
130 | AAGCTGTA | 0.0419
131 | AGAACCCT | -0.103
132 | CAAATAGA | 0.251
133 | CTCCTAGA | -0.109
134 | AGCTGTTA | -0.094
135 | GTACAAGA | 0.186
136 | CAATTCCC | -0.117
137 | CATTGCAC | 0.0876
138 | TGCGTCAA | 0.148
139 | TCCGACGA | -0.121
140 | ATAACCCA | 0.106
141 | GATTGTCA | -0.185
142 | CCGTTGGA | -0.0294
143 | AGAGAGAG | -0.139
144 | AACCTAGC | -0.0258
145 | CGGAGGGC | -0.176
146 | ACATTAAT | -0.0555
147 | CTTCAATC | -0.122
148 | CGTGGCGC | -0.199
149 | AGTTACAT | -0.0283
150 | GCGGGACA | -0.0993

Row | Sequence | PBM E-score
151 | CTGCTAAA | 0.17
152 | TATTCAGA | 0.0401
153 | ATCGTTCC | -0.0602
154 | ACCCTTAG | -0.257
155 | AGCGTCTG | 0.175
156 | CAAGGGAC | -0.153
157 | CACGGGTA | -0.0515
158 | AGATGGTA | -0.141
159 | ATATCACA | -0.0039
160 | AAACGTAA | -0.0438
161 | AGTATTGG | 0.169
162 | CAGGTATG | 0.0313
163 | CGCTCGAC | -0.094
164 | TCGGATCA | 0.0877
165 | CTCCTGAC | -0.0163
166 | GGACCGCC | -0.0463
167 | ACCGTGCT | 0.145
168 | AGAACGAC | 0.00731
169 | AAACGAAT | 0.126
170 | CAGTAAGG | -0.00208
171 | CTTAGCGC | 0.154
172 | CCCCCTAA | -0.258
